The source of these data is PMC7819943, “Rice protein-binding microarrays: a tool to detect cis-acting elements near promoter regions in rice”.

The other results are listed elsewhere or left out.

The assay has as its target T1, OsWOX13 (Oryza sativa, UniProt Q5QMM3 1-267).
T1 sequence: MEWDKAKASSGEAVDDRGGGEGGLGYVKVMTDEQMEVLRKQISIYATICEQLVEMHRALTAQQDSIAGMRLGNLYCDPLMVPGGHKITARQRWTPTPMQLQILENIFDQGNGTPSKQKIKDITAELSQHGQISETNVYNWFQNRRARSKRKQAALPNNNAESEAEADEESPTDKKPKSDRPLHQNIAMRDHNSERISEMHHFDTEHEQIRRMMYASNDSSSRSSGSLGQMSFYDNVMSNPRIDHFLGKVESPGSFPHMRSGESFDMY
Nature of the assay: protein-binding microarray (RPBM); PBS, 2% BSA, 51.3 ng/ul salmon testes DNA, 50 uM zinc acetate, 200 nM TF, 25 C, 1 h; high values mean tight binding. The settings on record: protein: recombinant; tags: N-terminal polyhistidine and DsRed monomer fusion (pET32a); label: CyDye5-dUTP incorporated in the synthesized complementary strand; 3' TTTTT single-stranded linker to array surface; dsDNA, one strand shown. A digest of the protocol: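 A custom Agilent array was converted to double-stranded form by primer extension with Cy5-dUTP and blocked with 2% BSA. Protein at 200 nM in PBS with 2% BSA, salmon testes DNA and 50 µM zinc acetate was applied for 1 h at 25 °C, followed by washing. The proteins were polyhistidine–DsRed N-terminal fusions of transcription factors, expressed in E. coli BL21-CodonPlus and Ni–NTA-purified. The binding signal is per-feature fluorescence intensity (arbitrary units) from an Axon 4000B scanner.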
For the sequence “ACTAATGGATTCTCTCTTAAATCTTTGCAAAGTACTAGAGCGGAGTCACCTAGTGCAG”, the binding signal is 7730 fluorescence intensity (a.u.).
Take “AGTGAAATTAAAATTACTAAATTACAAAGGAGAGCACATGCGGAGTCACCTAGTGCAG”: the binding signal was 21700 fluorescence intensity (a.u.).
Turning to “TCAGTTGATCAATCAATTAAGGAACTAGTCCACCAATCAACGGAGTCACCTAGTGCAG”, the binding signal is 34900 fluorescence intensity (a.u.).
For “TTTAAAAGCTTGATTGAGATTAGCGTGCAAAACACACGTTCGGAGTCACCTAGTGCAG”, the binding signal is 33000 fluorescence intensity (a.u.).
With “AAGCTATTAGATTGGCTATAGATGAATTGAAGTTAGTAGTCGGAGTCACCTAGTGCAG” the figure was 26100 fluorescence intensity (a.u.); with “GTATCATCAATCAGAGAGTGTAGTAGTAGCTAAGCTAGCTCGGAGTCACCTAGTGCAG”, 12800 fluorescence intensity (a.u.).
Take “AGTGTAATGGATTGTAATGGATGACCACATATTGATATAGCGGAGTCACCTAGTGCAG”: the binding signal was 21000 fluorescence intensity (a.u.).
Take “TACTGATTTGTTCTTTGATTTCTCATCTGATCACATGCCTCGGAGTCACCTAGTGCAG”: the binding signal was 36500 fluorescence intensity (a.u.).
Consider “TCATCATCATCATCATTATTAAAGTAAATTTCAGAAAACTCGGAGTCACCTAGTGCAG”, for which the binding signal was 3740 fluorescence intensity (a.u.).
On to “CCACTACTACGCGATTGATTTTCCTAGACTCTTTGTTTCCCGGAGTCACCTAGTGCAG”, for which the binding signal is 7830 fluorescence intensity (a.u.).
As to “AATGATAAAATTTTAATTAATCATATGCTAATGACTTACTCGGAGTCACCTAGTGCAG”, the binding signal is 24100 fluorescence intensity (a.u.).
The value for “AACAAAACTAATTGTCAAACTTATATCAGAAATCAACAGCCGGAGTCACCTAGTGCAG” was 13500 fluorescence intensity (a.u.); that for “CTGAAATTTATCATTCATAAAGGTGGAGTTTATGAAACATCGGAGTCACCTAGTGCAG” was 10200 fluorescence intensity (a.u.).
As for “GGCAATCAATCAACCAATCACCAGCTTACAATTCGGCCACCGGAGTCACCTAGTGCAG”, the binding signal is 59300 fluorescence intensity (a.u.).
Regarding “TGTAATTTGACTCGTTTGATGGTTTTGGAGGACGGTTTCTCGGAGTCACCTAGTGCAG”, the binding signal was 20200 fluorescence intensity (a.u.).
Turning to “TTGTGATTGTAGTAATTATGTACTAGTAACGAAAATTCTGCGGAGTCACCTAGTGCAG”, the binding signal was 40100 fluorescence intensity (a.u.).
The value for “ATTTAATAAGCAATTAACGAAAATGGTAAATATCCCTAAACGGAGTCACCTAGTGCAG” was 5710 fluorescence intensity (a.u.); that for “ACGCGCGAGCTATATTTGATTGGGCTAGATGGGCCTCGCTCGGAGTCACCTAGTGCAG” was 4200 fluorescence intensity (a.u.); that for “CTTTGACGAATTCTGCCTCAGCGAGTATGCCCATTGGCTGCGGAGTCACCTAGTGCAG” was 3300 fluorescence intensity (a.u.).
“CTTTAATAAATTAGAGGAATTTCTAATAATTCTTAGAAAACGGAGTCACCTAGTGCAG”: the binding signal is 5060 fluorescence intensity (a.u.).
Take “CTGAGCAAAGATAATTTAAGATCCAAATGTATCCTCACAGCGGAGTCACCTAGTGCAG”: the binding signal is 3230 fluorescence intensity (a.u.).
With “AATAAACTAAATTCCCTTAATAGAGAGTTTCCAAAATATGCGGAGTCACCTAGTGCAG” the figure was 10800 fluorescence intensity (a.u.); with “AACCATCATCATTCATCACCAATCATGAGATCCACTCCCCCGGAGTCACCTAGTGCAG”, 6860 fluorescence intensity (a.u.); with “GAACCATCAATCACACAACCAACGATACACAGTATCCCTACGGAGTCACCTAGTGCAG”, 17800 fluorescence intensity (a.u.).
With “GGAGAATAATTGAAGAGGGAGCAAACAGATTTGAAGCGGTCGGAGTCACCTAGTGCAG”, the binding signal is 21000 fluorescence intensity (a.u.).
In the case of “TGAGAATCAATCAATTAACTTAAATTGCTTCCTATAAAATCGGAGTCACCTAGTGCAG”, the binding signal was 37700 fluorescence intensity (a.u.).
The value for “TTGAGTCTAATTAGTCCATGATTAGCCATAAGTGCTACAGCGGAGTCACCTAGTGCAG” was 30600 fluorescence intensity (a.u.); that for “CACGTATAAATTGCACTGTGTACTTAGACATCCATAACGTCGGAGTCACCTAGTGCAG” was 4920 fluorescence intensity (a.u.); that for “ACATGTTAATTTTAACATTGACTAATAGTAAGTAGTGAGCCGGAGTCACCTAGTGCAG” was 25000 fluorescence intensity (a.u.).
Consider “CATGCTTAACAGCGTAATTAAGCTTGCATTGCTAATCCTGCGGAGTCACCTAGTGCAG”, for which the binding signal is 14000 fluorescence intensity (a.u.).
In the case of “AGCAGGAGATTGAGCTTAATGAAGATGAACCTGCTTTCTTCGGAGTCACCTAGTGCAG”, the binding signal was 14400 fluorescence intensity (a.u.).
With “TGCCAACGTAATAGACAGTACGGTACAGAACATGTCAAATCGGAGTCACCTAGTGCAG” the figure was 3410 fluorescence intensity (a.u.); with “GACCAATTAGTCATTAGTACTCCCAATTTTAAGCTAAAACCGGAGTCACCTAGTGCAG”, 7130 fluorescence intensity (a.u.); with “TAAAATTTCTGCAATTTTGTTTGAGAATTCAAATTTTGTTCGGAGTCACCTAGTGCAG”, 3310 fluorescence intensity (a.u.).
Take “ATCTTAATTAAATCATTCTACATAAAATCCTCGATCCGACCGGAGTCACCTAGTGCAG”: the binding signal was 32700 fluorescence intensity (a.u.).
As for “GTTTTGTATGTAATTATTGCTAGTGGATGATGATGTATCACGGAGTCACCTAGTGCAG”, the binding signal was 5370 fluorescence intensity (a.u.).
With “ATGTGAAATTACTAACTTACCCTTGCAATATAATCTGGTTCGGAGTCACCTAGTGCAG” the figure was 3290 fluorescence intensity (a.u.); with “AACTCAAGTAATCATGCGTTAATGGTTTTATCGTTTTACGCGGAGTCACCTAGTGCAG”, 3310 fluorescence intensity (a.u.).
Turning to “TATGTGGATAATTGCAGTTCATCCACGTATGACAACTGGGCGGAGTCACCTAGTGCAG”, the binding signal is 4700 fluorescence intensity (a.u.).
The value for “ACTATAACTGTCATAATGTTTCAATTAATTTCTCAGCATCCGGAGTCACCTAGTGCAG” was 20800 fluorescence intensity (a.u.); that for “ACCTCTTGCAATTAATAGCTTGACTTTGACTTTGACTTCCCGGAGTCACCTAGTGCAG” was 7050 fluorescence intensity (a.u.); that for “TCAAATTATCTTCAATCTGTTGGTTTACCAGGGAAAACCACGGAGTCACCTAGTGCAG” was 14500 fluorescence intensity (a.u.).
The value for “GCATGATCTAGATAATTTATGTGCTACACAATTTGCCTCTCGGAGTCACCTAGTGCAG” was 22000 fluorescence intensity (a.u.); that for “CTTTATTATCCAAATTACTTTAATTACAACTCTTCGTTTTCGGAGTCACCTAGTGCAG” was 10100 fluorescence intensity (a.u.).
For the sequence “TGATTTATTTATGTAATAAATTAAATCATTATATGCCCATCGGAGTCACCTAGTGCAG”, the binding signal is 5110 fluorescence intensity (a.u.).
“ATTAATCATGTGCTAATGGACCGCTCCGTTTTCCGTGCGCCGGAGTCACCTAGTGCAG”: the binding signal is 9930 fluorescence intensity (a.u.).
For the sequence “TAAAATTTATAATTTATAAATATAATATCGTGCCCATCTTCGGAGTCACCTAGTGCAG”, the binding signal is 14100 fluorescence intensity (a.u.).
For “GCCCTCACCATCATCATCATCATCAAGATAGCCAAAATGACGGAGTCACCTAGTGCAG”, the binding signal is 3300 fluorescence intensity (a.u.).
Take “TGGACACTTAAATAATGATTACTATACGCAATTGACAAGCCGGAGTCACCTAGTGCAG”: the binding signal is 6040 fluorescence intensity (a.u.).
With “CCTTATAAATTGCGCACAGATTGGCTCGTGTTCTTCGCACCGGAGTCACCTAGTGCAG” the figure was 41500 fluorescence intensity (a.u.); with “GTGATTAATTTACTGTATTTGAAATATGGCATAAAGAAATCGGAGTCACCTAGTGCAG”, 28500 fluorescence intensity (a.u.); with “CCTAATTAATCCGTCATTAACAAATGTTTACTGTAGCACCCGGAGTCACCTAGTGCAG”, 44800 fluorescence intensity (a.u.).
With “AAATAAGATTGATAGAACCGTAACTCTAGAAGGTGAGCTCCGGAGTCACCTAGTGCAG” the figure was 19100 fluorescence intensity (a.u.); with “TTACCATTAAATTAGATCCATTTAAAAGGTCCCCGCTTCACGGAGTCACCTAGTGCAG”, 10200 fluorescence intensity (a.u.).
